This note sets out measurements from PubChem BioAssay AID1745853 (National Center for Advancing Translational Sciences (NCATS), 2022).

Common to all, as to assay: Primary Screen for Target Class Profiling of Small Molecule Inhibitors of Methyltransferases
The target of experiment [1] is Glycine N-methyltransferase (Homo sapiens) (UniProt Q14749). To be noted: purified enzyme, MTase-Glo SAH luminescence; measured here: GNMT inhibition; at 40 µM; stronger effect = lower value. The essentials:
(§1)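 Each enzyme was reacted with SAM and its substrate, with compounds tested once at 40 uM; SAH formed was read by MTase-Glo luminescence.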

Experiment [2] deals with Guanidinoacetate N-methyltransferase (Homo sapiens) (UniProt Q14353). The conditions noted are these: purified enzyme, MTase-Glo SAH luminescence; measured here: GAMT inhibition; at 40 µM; stronger effect = lower value. The essentials: as §1
Experiment [3] addresses Histamine N-methyltransferase (Homo sapiens) (UniProt P50135). The conditions noted are these: purified enzyme, MTase-Glo SAH luminescence; measured here: HNMT inhibition; at 40 µM; stronger effect = lower value. The essentials: as §1
Experiment [4] concerns the target Nicotinamide N-methyltransferase (Homo sapiens) (UniProt P40261). To be noted: purified enzyme, MTase-Glo SAH luminescence; measured here: NNMT inhibition; at 40 µM; stronger effect = lower value. The essentials:
as §1

Experiment [5] concerns the target Phenylethanolamine N-methyltransferase (Homo sapiens) (UniProt P11086). The conditions noted are these: purified enzyme, MTase-Glo SAH luminescence; measured here: PNMT inhibition; at 40 µM; stronger effect = lower value. The essentials: as §1

Molecules are shown by their SMILES. Some of the results follow. Shown are side measurements of this screen, not its main read-out; they come without a call.
% is scaled to controls: 0 for no effect and ±100 for the full control effect.

For the compound `c1cnc(N2CCOCC2)c(OC2CCNC2)n1` (stereo not given), the activity change, negative = inhibition in experiment [1] was -6.26%; in experiment [2], -5.07%; in experiment [3] it was -6.39%; in experiment [4], -5.25%; in experiment [5], -3.51%.

For `FC(F)(F)c1ccc(Nc2nc3ccc(Oc4ccnc(-c5ncc(C(F)(F)F)[nH]5)c4)cc3[nH]2)cc1`, the activity change, negative = inhibition in experiment [1] was -7.1%; in experiment [2], -16%; in experiment [3], 0.514%; in experiment [4], -41.5%; in experiment [5], -2.35%.

On to `C/C=C(\C)C(=O)OC[C@H]1O[C@@H](O[C@H]2[C@@H](O[C@H]3O[C@H](COC(=O)/C(C)=C/C)[C@@H](O)[C@H](O)[C@H]3O[C@@H]3O[C@H](COC(=O)/C(C)=C/C)[C@@H](O)[C@H](OC(=O)/C(C)=C/C)[C@H]3O)O[C@H](COC(=O)/C(C)=C/C)[C@@H](O)[C@@H]2O)[C@H](O)[C@@H](O)[C@@H]1O`, for which the activity change, negative = inhibition in experiment [1] was 0%; in experiment [2], 8.72%; in experiment [3], 0.179%; in experiment [4] it was -3.48%; in experiment [5], 4.27%.

Regarding `C=CCN(C)C(=O)[C@@H](C)C1CC[C@@]2(C)Cc3sc(CSc4ccccc4)nc3[C@@H](C)[C@@H]2[C@H]1O` (stereo not given in full), the activity change, negative = inhibition in experiment [1] was -5.06%; in experiment [2], -6.45%; in experiment [3], -1.99%; in experiment [4], -13.8%; in experiment [5] it was -24.7%.

In the case of `CCCn1c(=O)c2ccc(C(=O)NC(C)CC)cc2n2c(=O)n(Cc3cccc(Cl)c3)nc12` (stereo not given), the activity change, negative = inhibition in experiment [1] is -1.02%; in experiment [2], 3.06%; in experiment [3], 2.87%; in experiment [4] it was -6.35%; in experiment [5], -0.905%.

On to `CC(C)Cc1cc(C(=O)N2CCc3[nH]nc(-c4ccccc4)c3C2)nc(=O)[nH]1`, for which the activity change, negative = inhibition was -6.2% in experiment [1]; -1.76% in experiment [2]; 1.42% in experiment [3]; -1.16% in experiment [4]; -1.92% in experiment [5].

With `CC1CC[C@]2(C(=O)O)CC[C@]3(C(=O)O)C(=CCC4[C@@]5(C)CC[C@H](O[C@@H]6O[C@H](CO)[C@@H](O)[C@H](O)[C@H]6O)C(C)(C)C5CC[C@]43C)C2C1C` (stereo not given in full), the activity change, negative = inhibition in experiment [1] is 5.94%; in experiment [2], 7.3%; in experiment [3] it was 11.5%; in experiment [4], -6.01%; in experiment [5] it was 3.85%.

Turning to `CC1(C(=O)NCc2ccccc2)Cn2nc(-c3ccccc3)cc2C(=O)N1CCCc1ccccc1` (stereo not given), the activity change, negative = inhibition stood at 7.21% in experiment [1]; 2.4% in experiment [2]; 9.15% in experiment [3]; 10.1% in experiment [4]; 2.78% in experiment [5].

`CCC1c2ccc(C)n2CCN1C(=O)Nc1ccc(Br)cc1F` (stereo not given): the activity change, negative = inhibition is 0.017% in experiment [1]; 0.176% in experiment [2]; 4.87% in experiment [3]; -12.6% in experiment [4]; -2.1% in experiment [5].

`Cc1ccccc1CN1CC(=O)N(Cc2ccc(Cl)cc2)c2ccccc2S1(=O)=O`: the activity change, negative = inhibition in experiment [1] is 4.88%; in experiment [2], 6.69%; in experiment [3] it was 0.454%; in experiment [4] it was -0.312%; in experiment [5], -1.01%.

`CCOc1ccccc1CN1C(=O)c2cc3sccc3n2CC1(C)C(=O)NC1CCCCC1C` (stereo not given): the activity change, negative = inhibition in experiment [1] was 0.5%; in experiment [2] it was 0%; in experiment [3], 2.13%; in experiment [4], -2.95%; in experiment [5] it was -1.46%.

In the case of `C[C@@H]1N[C@H]2N(C1=O)c1ccccc1[C@@]2(O)C[C@@H]1C(=O)N[C@@H](C)c2nc3ccccc3c(=O)n21`, the activity change, negative = inhibition is -4.99% in experiment [1]; -0.094% in experiment [2]; 5.37% in experiment [3]; -20.2% in experiment [4]; -7.53% in experiment [5].

For `CCOC(=O)Nc1nc2ccccc2[nH]1`, the activity change, negative = inhibition in experiment [1] was -7.76%; in experiment [2] it was -3.88%; in experiment [3], -1.88%; in experiment [4] it was -29.1%; in experiment [5], -0.36%.

As for `CC(C)NC(=O)c1ccc2c(=O)nc3c(-c4ccccc4)n[nH]n3c2c1`, the activity change, negative = inhibition is 2.28% in experiment [1]; 0% in experiment [2]; 3.22% in experiment [3]; 4.42% in experiment [4]; -0.592% in experiment [5].

On to `COc1ccc(CNC(=O)c2ccc3c(=O)nc4c(-c5cccc(F)c5)n[nH]n4c3c2)cc1OC`, for which the activity change, negative = inhibition in experiment [1] is -13%; in experiment [2] it was -2.46%; in experiment [3] it was -4.66%; in experiment [4], -9.72%; in experiment [5], -4.37%.

As for `C=Cc1ccc(Cn2nc3n(CCC(C)C)c(=O)c4ccc(C(=O)NC5CCCC5)cc4n3c2=O)cc1`, the activity change, negative = inhibition was 4.57% in experiment [1]; 1.12% in experiment [2]; 6.26% in experiment [3]; -6.42% in experiment [4]; 4.34% in experiment [5].

Take `CC(=O)N1CCN(Cc2snnc2C(C)C)CC(O)C1` (stereo not given): the activity change, negative = inhibition in experiment [1] was -0.744%; in experiment [2], 0.755%; in experiment [3], 2.52%; in experiment [4], -0.594%; in experiment [5], -3.62%.

As for `COc1ccc(C(=O)N[C@H](C)c2c(-c3ccc(F)cc3)noc2C(=O)O)cc1`, the activity change, negative = inhibition in experiment [1] is -10.2%; in experiment [2], -3.23%; in experiment [3], -1.81%; in experiment [4], -13.1%; in experiment [5], -0.736%.

For `Nc1nc2c(cnn2CCc2ccccc2)c2nc(-c3ccco3)nn12`, the activity change, negative = inhibition was -63.9% in experiment [1]; 2.57% in experiment [2]; -6.19% in experiment [3]; -9.14% in experiment [4]; 2.77% in experiment [5].

With `CNC(=O)c1c(F)cccc1Nc1nc(Nc2cc3c(cc2OC)CCN3C(=O)CN(C)C)nc2[nH]ccc12`, the activity change, negative = inhibition in experiment [1] is -6.16%; in experiment [2], 9.4%; in experiment [3] it was -8.5%; in experiment [4] it was -1.66%; in experiment [5] it was -0.491%.

Turning to `COc1ccc2c(c1)c(CC(=O)O)c(C)n2C(=O)c1ccccc1`, the activity change, negative = inhibition in experiment [1] is -0.896%; in experiment [2], 13.8%; in experiment [3], 6.33%; in experiment [4], -11.7%; in experiment [5], 7.65%.

For `Cc1cccc(NC(=O)Cn2nc3n(C(C)C)c(=O)c4ccc(C(=O)NC5CCCCC5)cc4n3c2=O)c1`, the activity change, negative = inhibition is 1.67% in experiment [1]; 1.87% in experiment [2]; 3.99% in experiment [3]; 1.81% in experiment [4]; 2.72% in experiment [5].

Regarding `CCC(C)NC(=O)c1ccc2c(=O)n(C)c3nn(Cc4ccccc4Cl)c(=O)n3c2c1` (stereo not given), the activity change, negative = inhibition in experiment [1] is -3.7%; in experiment [2], 0%; in experiment [3], 0.523%; in experiment [4], -4.48%; in experiment [5] it was 0.235%.

Consider `COc1ccccc1CNC(=O)CCn1ccc2cc(S(=O)(=O)N3CCC(C)CC3)ccc21`, for which the activity change, negative = inhibition in experiment [1] is 4.42%; in experiment [2], -1.05%; in experiment [3] it was -1.92%; in experiment [4] it was -3.74%; in experiment [5] it was -3.77%.

Regarding `CCN(CC)CCCNC(=O)CCCc1nnc2n3nc(-c4ccccc4)nc3c3ccccc3n12`, the activity change, negative = inhibition in experiment [1] was -10.6%; in experiment [2], 0%; in experiment [3], -61.6%; in experiment [4], 9.37%; in experiment [5], -4.35%.

Turning to `COCCOc1cc(C)c2c(c1C)C[C@H](C(C)C(=O)NCc1cccs1)CC2` (stereo not given in full), the activity change, negative = inhibition is -5.72% in experiment [1]; -4.07% in experiment [2]; -11.2% in experiment [3]; -13.8% in experiment [4]; -6.32% in experiment [5].

Turning to `O=C(N[C@@H]1CCOC[C@H]1OCc1cscn1)c1ccccc1-n1cccn1`, the activity change, negative = inhibition in experiment [1] was -0.047%; in experiment [2], -1.73%; in experiment [3], -1.58%; in experiment [4], -2.11%; in experiment [5] it was -1.75%.

Regarding `O=C(/C=C/c1cccc(S(=O)(=O)Nc2ccccc2)c1)NO`, the activity change, negative = inhibition in experiment [1] was 1.52%; in experiment [2] it was 2.35%; in experiment [3] it was 6.93%; in experiment [4], -8.12%; in experiment [5], 6.09%.
